{
  "source": "patent US20250296996A1",
  "about": "“ANGIOPOIETIN-RELATED PROTEIN 7-SPECIFIC ANTIBODIES AND USES THEREOF” (Broadwing Bio, Inc., priority 2022, published 2025)",
  "molecules": {"B1": {"name": "ATX-P-433: human anti-ANGPTL7 monoclonal antibody; HCDR1-3 SEQ ID NOs 42, 58, 73; LCDR1-3 SEQ ID NOs 94, 106, 118 (antibody)", "heavy": "EVQLVESGGGLVQPGRSLRLSCAASGFTFDDFAMHWVRQGPGKGLEWVSGIGWNSGSIGYADSVKGRFTISRDNAKNSLYLQMNSLRAEDTALYYCAKAPDYGDYYFDYWGQGTLVTVSS", "light": "DIQMTQSPSSLSASVGDRVTITCRASQSISIYLNWYQQKPGTAPKLLIYAASSLQSGVPSRFSGSGSGTDFTLTISSLQPEDFAAYYCQQSYTTPLTFGGGTKVEIKRTVAAPSVFIFPPSDEQLKSGTASVVCLLNNFYPREAKVQWKVDNALQSGNSQESVTEQDSKDSTYSLSSTLTLSKADYEKHKVYACEVTHQGLSSPVTKSFNRGEC"}},
  "key": {"[1]": {"assay": "Differential scanning fluorimetry (Protein Thermal Shift assay), thermal stability", "assay_type": "physicochemical", "details": "DSF, melt 25° C. to 95° C., triplicate; in °C (unit assumed)", "experimental": "Human ANGPTL7 monoclonal antibody differential scanning fluorimetry (DSF). […] Among the many techniques used to study the stability of mAbs, differential scanning fluorimetry (DSF) offers both excellent throughput and minimal material consumption. DSF measures the temperature of the protein unfolding transition (Tm) based on the change in fluorescence intensity of an environmentally sensitive dye.\nExperiments were conducted to assess the thermal stability of the human ANGPTL7 monoclonal antibodies (“ATX” antibodies) of the present disclosure by determining the melting temperature. Thermal stability was assessed via differential scanning fluorimetry (DSF) utilizing the Protein Thermal Shift (PTS) assay from Applied Biosystems. The assay was performed according to the manufacturer's instruction. Briefly, the antibody to be evaluated was prepared in triplicate by mixing with Protein Thermal Shift dye and buffer; a real-time melt experiment from 25° C. to 95° C. was run on QuantStudio 3. Data was analyzed by using Protein Thermal Shift Software and the melting temperature (Tm) was calculated from the melt curve (Table 1)."}, "[2]": {"target": "T1, mouse ANGPTL7 protein (muANGPTL7-his, R&D Systems) (Mus musculus, UniProt Q8R1Q3)", "T1 construct": "His; purchased R&D Systems", "T1 sequence (Q8R1Q3 22-337)": "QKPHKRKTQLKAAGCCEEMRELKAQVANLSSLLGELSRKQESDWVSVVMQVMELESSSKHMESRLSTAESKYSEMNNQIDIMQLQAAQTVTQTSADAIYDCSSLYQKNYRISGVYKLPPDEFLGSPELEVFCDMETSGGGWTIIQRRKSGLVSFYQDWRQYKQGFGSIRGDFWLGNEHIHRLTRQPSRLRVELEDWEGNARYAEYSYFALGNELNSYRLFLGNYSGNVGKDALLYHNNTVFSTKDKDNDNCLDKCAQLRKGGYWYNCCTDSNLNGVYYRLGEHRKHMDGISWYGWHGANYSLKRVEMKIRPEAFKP", "assay": "Octet HTX binding kinetics to muANGPTL7-his", "details": "muANGPTL7-his @ 200 nM", "experimental": "Experiments were also conducted to determine the reactivity and dissociation constants (KD) of anti-ANGPTL7 antibodies with the mouse ANGPTL7 protein. Binding experiments were performed on Octet HTX (ForteBio) in 1×PBS, pH 7.4, 0.1 mg/mi BSA, 0.05% Sodium Azide, and 0.02% Tween 20. Antibodies at a concentration of 50 nM were loaded on pre-hydrated AHC biosensors for […]. The loaded sensors were dipped into monovalent muANGPTL7-his (R&D Systems) at a concentration of 200 nM for 5 min of association, followed by 10 min of dissociation. Results were analyzed with ForteBio Data Analysis 11.1 and fit to a 1:1 binding model to determine the monovalent KD. Responses (nm) at the end of association were also determined (Table 5)."}, "[3]": {"target": "T2, human ANGPTL7 multimer protein (Pext-01, huANGTPL7-FLAG multimer) (Homo sapiens, UniProt O43827)", "T2 construct": "human wild type ANGPTL7 multimer (PExt-1); purchased Biortus", "T2 sequence (O43827 27-346)": "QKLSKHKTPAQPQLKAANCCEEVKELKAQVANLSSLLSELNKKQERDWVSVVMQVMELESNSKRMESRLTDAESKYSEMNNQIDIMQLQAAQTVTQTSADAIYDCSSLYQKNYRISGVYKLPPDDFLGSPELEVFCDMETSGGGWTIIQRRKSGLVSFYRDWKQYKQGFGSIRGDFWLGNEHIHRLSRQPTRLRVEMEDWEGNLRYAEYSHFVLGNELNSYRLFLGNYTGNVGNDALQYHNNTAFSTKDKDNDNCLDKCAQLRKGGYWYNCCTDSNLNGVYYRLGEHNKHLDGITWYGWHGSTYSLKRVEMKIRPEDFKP", "assay": "Octet HTX binding kinetics to Pext-01 (huANGTPL7-FLAG multimer)", "details": "Pext-01 multimer @ 100 nM", "experimental": "Experiments were also conducted to determine the reactivity and dissociation constants (KD) of anti-ANGPTL7 antibodies with the human ANGPTL7 multimer protein. Binding experiments were performed on Octet HTX (ForteBio) in 1×PBS, pH 7.4, 0.1 mg/ml BSA, 0.05% Sodium Azide, and 0.02% Tween 20. Antibodies at a concentration of 50 nM were loaded on pre-hydrated AHC biosensors for 5 mi. The loaded sensors were dipped into Pext-01 (huANGTPL7-FLAG) at a concentration of 100 nM for 5 min of association, followed by 10 min of dissociation. Results were analyzed with ForteBio Data Analysis 11.1 and fit to a 1:1 binding model to determine the apparent KD. Responses (nm) at the end of association were also determined (Table 7)."}},
  "data": [
    {"molecule": "B1", "values": [
      {"measurement": "Tm 2 - Mean", "setting": "[1]", "value": 72.49},
      {"measurement": "Tm D - Mean", "setting": "[1]", "value": 62.68},
      {"measurement": "Response", "setting": "[2]; at end of association", "value": 0.17, "unit": "nm"},
      {"measurement": "KD (M)", "setting": "[2]; monovalent KD, 1:1 model", "value": "P.F./L.R."},
      {"measurement": "kdis(1/s)", "setting": "[2]", "value": "P.F./L.R."},
      {"measurement": "kon(1/Ms)", "setting": "[2]", "value": "P.F./L.R."},
      {"measurement": "kdis(1/s)", "setting": "[3]", "value": "Slow Koff"},
      {"measurement": "kon(1/Ms)", "setting": "[3]", "value": "Low KD"},
      {"measurement": "KD (M)", "setting": "[3]; apparent KD, 1:1 model", "value": "Low KD"}
    ]}
  ]
}
